Reference: the BET-seq Pho4 binding data (Le et al. 2018)
The other results are listed elsewhere or left out. These are noisy estimates, calculated here from bound and input reads.

biological target: T1, Pho4 (S. cerevisiae) (UniProt P07270); test: relative binding free energy (BET-seq); higher = weaker binding; settings: reference: library average
T1 sequence: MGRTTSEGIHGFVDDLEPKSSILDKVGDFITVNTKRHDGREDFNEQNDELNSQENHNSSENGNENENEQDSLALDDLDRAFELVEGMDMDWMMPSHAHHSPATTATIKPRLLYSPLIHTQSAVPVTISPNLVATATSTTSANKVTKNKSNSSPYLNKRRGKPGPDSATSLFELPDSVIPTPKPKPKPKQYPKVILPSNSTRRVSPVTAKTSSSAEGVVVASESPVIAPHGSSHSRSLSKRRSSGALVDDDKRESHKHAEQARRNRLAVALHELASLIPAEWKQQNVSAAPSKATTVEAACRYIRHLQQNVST

Sequence	relative binding free energy [kcal/mol]
ATAGTCACGTGACTGT	0.15
TTTGGCACGTGAGAAG	0.16
GTATTCACGTGCAGGG	0.32
GTGTTCACGTGTCCTT	0.24
CGGGCCACGTGAAAGG	0.24
GAGGGCACGTGAAGTG	0.2
GAGAGCACGTGCTTTG	-0.02
GGGCTCACGTGTTTGA	0.31
ATTTACACGTGGTACG	0.12
TATCTCACGTGGAAGG	0.28
GGTTTCACGTGCGCTT	0.34
GTAGGCACGTGAATAG	0.13
CTTATCACGTGTTTAT	0.04
AGGTGCACGTGTGATG	0.02
AGAGTCACGTGATGAG	0.25
TCTGTCACGTGATTTA	0.19
TGTGTCACGTGCGTAT	0.01
CCTTGCACGTGTGTTT	-0.09
TATAACACGTGAAAGG	0.37
AGGTACACGTGTATCG	0.02
CGGATCACGTGGGTAT	-0.1
GTGTACACGTGGTTGT	0.06
TTTTTCACGTGGCATA	0.14
TTTAACACGTGATGTG	0.06
TGGGCCACGTGTGATG	0.06

Sequence	relative binding free energy [kcal/mol]
TTTATCACGTGTCTAG	0.1
GTGAACACGTGGTGCG	0.05
GTGTACACGTGAAAGT	0.26
TTGGACACGTGTGTGC	0.1
TATATCACGTGAAGAG	0.35
TGGCCCACGTGGGGGG	-0.3
GGAGTCACGTGAGATA	0.32
TGGCCCACGTGTGTGG	-0.21
TGAGGCACGTGCGATA	-0.09
GGGGGCACGTGCGAAG	-0.09
GTGGTCACGTGCTGCA	0.1
CTTTTCACGTGGTAGT	0.21
CGCTGCACGTGTTGGG	0.06
TTCAGCACGTGATAAT	0.18
TGGGTCACGTGGGCGG	0.01
AAATTCACGTGTATGA	0.25
TGCGACACGTGAGGGC	0.3
ATGATCACGTGAGGAT	0.3
TCTATCACGTGAGTGT	0.37
ACTGACACGTGATTGT	0.26
TTAAACACGTGAGTGT	0.26
AGTGACACGTGAGAGA	0.26
AAATTCACGTGGCTGT	0.18
TTATTCACGTGATAAT	0.18
AGGGGCACGTGTTAGC	-0.08

Sequence	relative binding free energy [kcal/mol]
TGTAGCACGTGTCGTT	-0.11
TGCAGCACGTGGGCGA	-0.25
ATTGGCACGTGGGTAT	-0.22
TAAAGCACGTGGGTAT	-0.18
TGGTTCACGTGTGGCG	0.26
TTTAACACGTGATAGA	0.09
TGGGCCACGTGAAGTG	0.19
TTGGTCACGTGGTGAA	0.04
ATAATCACGTGATGGC	0.2
GGCCACACGTGGTGAG	0.16
GATGTCACGTGGGGTC	0.1
CTGGGCACGTGAGGTA	0.18
CAGAGCACGTGGTTAT	-0.12
GTGTTCACGTGAGTCT	0.43
CGGGGCACGTGGTTGT	-0.22
TGTGACACGTGTGGGC	0.07
TAGGGCACGTGATGTC	0.06
TGGTTCACGTGTTGTA	0.27
TGTGGCACGTGTAGAT	0.14
GGTGACACGTGTGAAG	0.17
AGCGACACGTGGTGTG	-0.06
TGTGCCACGTGTTGAG	-0.08
CGGGGCACGTGAGCGG	0.02
GTATGCACGTGCGTTG	-0.04
CAATTCACGTGGTTTG	0.18

Sequence	relative binding free energy [kcal/mol]
TTACGCACGTGGATGT	-0.05
TTAGTCACGTGAAGCA	0.39
TGAGCCACGTGGGGTG	-0.27
GGCAACACGTGGATGT	0.12
ATTGGCACGTGAATTG	0.21
TGGTACACGTGTAGTC	0.07
TATAGCACGTGTCTGG	-0.1
GGTGCCACGTGACGGG	-0.06
GGAGTCACGTGATGGA	0.29
TTGGGCACGTGAAAAG	0.16
ACTGTCACGTGGGTAG	-0.02
ATTGGCACGTGGAGCA	-0.08
TCTTGCACGTGGGCTT	-0.19
CAAATCACGTGGTGGC	0.36
TGCTGCACGTGTGAGG	0.05
GTTGACACGTGGTACT	-0.07
ATAGACACGTGGGTAG	-0.12
GGTTCCACGTGATGGA	0.25
TTGCGCACGTGAGTAG	0.15
AAGAACACGTGGGTGA	-0.02
GGTAGCACGTGCTGGC	-0.07
CGGCACACGTGGTTTT	0.12
TGGAACACGTGTCGGT	0.21
TGACTCACGTGTTTTT	0.18
GTACTCACGTGTGCGG	0.26

Sequence	relative binding free energy [kcal/mol]
TTGGGCACGTGGGAGC	-0.22
ATTAGCACGTGGGCAT	-0.26
CGTGGCACGTGTTATT	-0.01
GGGCGCACGTGAGAGC	0.24
GATAACACGTGTGTTA	-0.04
GTTTGCACGTGTGATA	0.22
TAGGGCACGTGAGGGC	0.17
GATTGCACGTGGGGGA	-0.01
AGGGACACGTGTACGG	0.19
CTGGTCACGTGGAATT	0.14
GCGGACACGTGAGTGG	0.19
TGAATCACGTGTTGTG	0.05
TGGTACACGTGTTTTC	0.01
TTGTTCACGTGAACTG	0.34
CGTGTCACGTGTATTG	0.15
AATGGCACGTGTTTAG	-0.19
AGAGTCACGTGTGTCA	0.23
TCTTACACGTGAGGAA	0.71
TAGGCCACGTGGTGTC	-0.13
CTTGGCACGTGGGGTA	-0.23
TGTTTCACGTGCCTGT	0.2
CGTGTCACGTGATAAT	0.27
AATGACACGTGTTAGG	0.02
AGGATCACGTGGGGGT	-0.01
TTCGTCACGTGGCTAG	0.07

Sequence	relative binding free energy [kcal/mol]
TTTAGCACGTGGATGA	0.07
TTGCGCACGTGTGATG	0.07
TTGGTCACGTGGCTGG	0.1
CGGGGCACGTGTTTTT	0.02
CGTTTCACGTGAATAT	0.28
ACAGGCACGTGGTGAT	-0.2
ATGGTCACGTGGGAGC	-0.07
TGACTCACGTGGGGTA	0.18
TAAGGCACGTGGAAGG	-0.08
TTAGTCACGTGCGTGT	0.03
GGCCGCACGTGTGGGT	0
GATAACACGTGAGTAT	0.5
ATAATCACGTGTGTGG	0.2
GCTGTCACGTGAATGG	0.34
TGGTACACGTGGTTCA	0.04
GGGTGCACGTGCGTGC	-0.17
GGGTTCACGTGGTATG	0.31
CGGGGCACGTGTGGGC	-0.09
TTATGCACGTGGTGGC	-0.09
GGCGTCACGTGGACGT	0.18
TCGCGCACGTGTGAGT	0.06
